Experimental data as given in a collection of fitness landscapes (doi:10.1016/j.celrep.2020.107928).
Over roughly 81,000 sequences, “one-hybrid fitness for binding NBS DNA” has its median near -0.1; the highest 2% begin near 0.36. The list shows a part of the results.

B1: Caulobacter ParB omega fusion; a variant is named by its letters at X, in order, B8GW30 (parent)
chain: MESVVVGEPGMSEGRRGLGRGLSALLGEVDAAPAQAPGEQLGGSREAPIEILQRNPDQPRRTFREEDLEDLSNSIREKGVLQPILVRPSPDTAGEYQIVAGERAWRAAQRAGLKTVPIMVRELDDLAVLEIGIIENVQRADLNVLEEALSYKVLMEKFERTQENIAQTIGKSXSHVANXMRLLXLPDEVQSYLVSGELTAXHARAIAAAADPVALAKQIIEGGLSVRETEALARKAPNLSAGKSKGGRPPRVKDTDTQALESDLSSVLGLDVSIDHRGSTGTLTITYATLEQLDDLCNRLTRGI

Variants of: B1
Assay: one-hybrid fitness for binding NBS DNA (the Noc-binding site; scaled: cognate 1, non-cognate 0); higher = stronger binding
Conditions: with NBS DNA site
Outline: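 Bacterial one-hybrid selection in E. coli USO rpoZ- hisB- pyrF- with a HIS3 reporter carrying the site 19 bp from the promoter, screening Caulobacter ParB libraries with four specificity codons randomised (NNS). Cells grew 48 hours at 37°C on M9-minus-histidine plus 0.1 mM IPTG and 5 mM 3-AT. Plasmids before and after selection were Illumina-sequenced, three replicate libraries pooled, and variants under 10 reads dropped. Fitness is the log change in variant-to-wild-type read ratio, rescaled to cognate 1, non-cognate 0.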

Variant | one-hybrid fitness for binding NBS DNA
DIEI | ≤ 0.2
KIAM | ≤ 0.2
CMRE | ≤ 0.2
SIDL | ≤ 0.2
MIPC | ≤ 0.2
PEVN | ≤ 0.2
VCYR | ≤ 0.2
CPTT | ≤ 0.2
ISQT | ≤ 0.2
KYKS | ≤ 0.2
RGAE | ≤ 0.2
HTSH | ≤ 0.2
IQLC | ≤ 0.2
RMQL | ≤ 0.2
GDHV | ≤ 0.2
IAFT | ≤ 0.2
NIPM | ≤ 0.2
HSFG | ≤ 0.2
VMMR | ≤ 0.2
VYSM | ≤ 0.2
GEKL | ≤ 0.2
YTGW | ≤ 0.2
QYTK | ≤ 0.2
SGHI | ≤ 0.2
PKGE | ≤ 0.2

Variant | one-hybrid fitness for binding NBS DNA
VTMP | ≤ 0.2
HFYC | ≤ 0.2
TPDE | ≤ 0.2
VHQG | ≤ 0.2
KLHL | ≤ 0.2
ISIV | ≤ 0.2
ESLV | ≤ 0.2
AYQS | ≤ 0.2
SASF | ≤ 0.2
NALL | ≤ 0.2
ARST | ≤ 0.2
LGRH | ≤ 0.2
ASSV | ≤ 0.2
YQSW | ≤ 0.2
IYSC | ≤ 0.2
RVCI | ≤ 0.2
TYHE | ≤ 0.2
HNNG | ≤ 0.2
LCNV | ≤ 0.2
VFET | ≤ 0.2
KYTN | ≤ 0.2
IKLG | ≤ 0.2
LIPL | ≤ 0.2
RNTW | ≤ 0.2
RQIE | ≤ 0.2

Variant | one-hybrid fitness for binding NBS DNA
VWSS | ≤ 0.2
DLLV | ≤ 0.2
GNVG | ≤ 0.2
HNGM | ≤ 0.2
LQGV | ≤ 0.2
RSDE | ≤ 0.2
PLVI | ≤ 0.2
CHKT | ≤ 0.2
VPYI | ≤ 0.2
AEER | ≤ 0.2
DTVT | ≤ 0.2
CFLM | ≤ 0.2
SFIG | ≤ 0.2
GTNC | ≤ 0.2
CLAY | ≤ 0.2
IVQG | ≤ 0.2
KWER | ≤ 0.2
MSMF | ≤ 0.2
KPPV | ≤ 0.2
RINV | ≤ 0.2
NNPY | ≤ 0.2
IIYG | ≤ 0.2
LHKR | ≤ 0.2
NPNS | ≤ 0.2
GWGG | ≤ 0.2

Variant | one-hybrid fitness for binding NBS DNA
YSLN | ≤ 0.2
TDSH | ≤ 0.2
RSPI | ≤ 0.2
RCSL | ≤ 0.2
MRYG | ≤ 0.2
IFTW | ≤ 0.2
SPIW | ≤ 0.2
SPNY | ≤ 0.2
QYQC | ≤ 0.2
HYRG | ≤ 0.2
PQYR | ≤ 0.2
QGIR | ≤ 0.2
PEVW | ≤ 0.2
HPHG | ≤ 0.2
CGSF | ≤ 0.2
QCCN | ≤ 0.2
NAKF | ≤ 0.2
VPKP | ≤ 0.2
KTPN | ≤ 0.2
EFLV | ≤ 0.2
VWKR | 0.236
AHSA | ≤ 0.2
YWIE | ≤ 0.2
